Read counts are not given, so values of variants with three or more changes are uncertain.
B1: LINE1-mini (parent)
chain: GGCAGAGCUCAACACAGCGUGGCAAAGUGGCUGUGGCUAGACUGCC

Variants of: B1
Experiment: self-cleavage, relative activity (ratio to wild type); higher = more cleavage; in vitro, sequencing; the parent is a self-cleaving ribozyme

Row | Variant | self-cleavage
1 | A26C G27A U34C G36C | 0.02
2 | A26G C42U C45G | 0.01
3 | A26G G27U G30U G44A | 0.11
4 | A26C U32A G40U U43G | 0.01
5 | C23U G29C C46A | 0.47
6 | A25C U28C G30C | 0.7
7 | A24G G30C U32A | 0.21
8 | A25C C45U C46G | 0.05
9 | C23U G44U C45G | 0.08
10 | A26U G36C G40C | 0.13
11 | A26U G27U G30A | 0.17
12 | A26C U38A G40A | 0.13
13 | C23G A25C C31G | 0
14 | A25U C31A C46U | 0.01
15 | A26U G27U C46U | 0.28
16 | C23A G33C G36A | 0.04
17 | A25C G27A U34C U38A | 0.04
18 | A24U U28A U32A | 0.04
19 | A24G A39G G40C | 0.03
20 | C23G G40U G44U | 0
21 | A26U U38A G40A | 0.04
22 | C23A G33U G36U | 0.04
23 | A25U A26U U38G | 0.03
24 | A25G G35A C45G | 0.06

Row | Variant | self-cleavage
25 | A25G G35A C45U | 0.12
26 | C23A U28A A39G G40A | 0.04
27 | C23A G27U G30U | 0.93
28 | C23G A24C C42U | 0.07
29 | A25G A41C C42G | 0.01
30 | A26C U32G U34A C37G U38G | 0.05
31 | C23G A24C A25C G29C | 0.2
32 | A25U A26C G30U | 0.64
33 | A25G A26U G33U U43A | 0.02
34 | A24C C31G C45G | 0.03
35 | A24G G30U C37G G40U | 0.03
36 | C23U G33C G40C C46U | 0.02
37 | A26C U28C G33A | 0.54
38 | A24G A26G G36A | 0.1
39 | A26C G30U G40A | 0.07
40 | C23U A24C U34A G35U | 0
41 | A25U G35U A41C | 0.04
42 | C23G U38A A39U | 0.49
43 | A24G A25C C31A U43A | 0.09
44 | A26U U28G G30C | 0.47
45 | A26C G29C C37U | 0.01
46 | A24G U28C A39U C42A | 0.1
47 | G27A C37G C42U U43A | 0.07
48 | A26G G27C U34G U38G | 0

Row | Variant | self-cleavage
49 | A26C A39C G40C | 0.02
50 | C23G G27A A39C C42A | 0.06
51 | A26G G33C U34A U38C G44U | 0.02
52 | A26G G27C G29U | 0.6
53 | A26U G27A G30C G40A | 0.16
54 | A24U C31U U34A C45G C46G | 0.02
55 | A26G C31U G36A A41U | 0.04
56 | C23U A26C U32A C42G | 0.05
57 | C23A G30C U32G G33C | 0.14
58 | A24C U34C G35A | 0.05
59 | A26U G29A G35U | 0.14
60 | C23U G27A A41C | 0.07
61 | A25U G36C A41G | 0.07
62 | A26C G30C G36C U38A | 0.03
63 | A24C A39C A41C | 0.05
64 | A25C U32G A41C | 0.04
65 | C23U U38A U43A | 0.05
66 | A24G U43A C46U | 0.07
67 | A26U G29A G33A U38G C46U | 0.01
68 | C23G G29U C46A | 0.43
69 | A26U U34A A39U | 0.02
70 | C23G G33C U34G G36C C45G | 0.02
71 | A26C G27U A41C | 0.02
72 | C23U G29C G36U | 0.04

Row | Variant | self-cleavage
73 | C23U A24G A26C U34G | 0.9
74 | C23U G27A G33A U43G | 0
75 | C23U A24U A26C C45A | 1.01
76 | A24C G36C C37U | 0.05
77 | A24C G27U U43G C45U | 0.24
78 | C23U A25C G29A | 0.26
79 | A26G U34G C42U | 0.03
80 | C23U C42U U43G | 0.05
81 | A25C U34G G40U | 0.04
82 | A26U G35A A39G | 0.11
83 | C23U C31U C42A | 0.04
84 | C23U G29C G33C C45A | 0.05
85 | C23U G33A G36A C45U | 0.03
86 | C23G G29C G36U C42A | 0.03
87 | A26U U28G C37U | 0.03
88 | A26C G35U C37G | 0.08
89 | A25U C31A G33U | 0.16
90 | C23U U28A C31A | 0.13
91 | C23G G27U G35A A39G | 0.02
92 | A26U G33C U38A G44U | 0.03
93 | A25C U28C G36C | 0.01
94 | C23A U32G G44U | 0.04
95 | C23U U32A U34A | 0.05
96 | A25U A41C C45A | 0.07

Row | Variant | self-cleavage
97 | A25U G29A U34G C42A | 0.06
98 | C23G A24U U28G G30U A39U | 0.6
99 | C23A G36U C46A | 0.07
100 | A24U A25C A41G | 0.16
101 | A25C A41C C42A C46A | 0
102 | A26U U28A C31U U34G | 0.03
103 | C23U G30C C45G | 0.03
104 | C23G G29U C31A U34C | 0.02
105 | C23G U43G C45A | 0.31
106 | C23G G40C U43A C46A | 0.09
107 | G27A G35A C42A C45U | 0.07
108 | A24G A25G U34A | 0.02
109 | C23U G35U G36U | 0.27
110 | A24C G33C U43C | 0.04
111 | C23G G29C G30U | 0.12
112 | A25U G29A U34G G40A | 0.06
113 | A24G A25G G27U U28C U32G G35U | 0.15
114 | C23A U38A G44C | 0.1
115 | A24G C42A C45U | 0.3
116 | C23A G36C G40C C45G | 0.03
117 | C23U G29U C31U | 0.14
118 | C23U G29U C31G | 0.03
119 | C23A G29U U38G A41C | 0.02
120 | A24U G33U C37U | 0.07

Row | Variant | self-cleavage
121 | A24U G29A G40C | 0.04
122 | A24G A26C G35A A39G | 0.09
123 | A26U G33U C45U | 0.25
124 | A26U A41G U43G | 0.01
125 | A25U U28C U34C | 0.23
126 | A26U C31G U34A | 0.01
127 | C23U G33C U43G | 0
128 | A25C G40U C46U | 0.12
129 | A26C G29A G33U | 0.05
130 | A25U G33A C42U | 0.28
131 | A24G U32C G44A | 0.43
132 | C23A G36A G40A | 0.74
133 | A26U G30A U32G G33U G36A A39C G44A C45G | 0
134 | A24C G29U U38G | 0.02
135 | C23A G30C G44C | 0.09
136 | A24U G27U U28A G29A | 2.23
137 | C23A G29A U43C | 0.13
138 | C23A G29A U43A | 0.23
139 | A24U G27C G36C U38C | 0.15
140 | C23U C31A C46A | 0.27
141 | A26U U32A G44C | 0.05
142 | A26U U34G U43A C46U | 0.02
143 | A24G G27C G30C | 0.55
144 | A24G G27C G30U | 1.67

Row | Variant | self-cleavage
145 | A24C G33A C46U | 0.03
146 | C23U G33A G35A C46A | 0.02
147 | A25G G29A U38C | 0.43
148 | C23G A25C U32G | 0.38
149 | A26U G30A C42G | 0.01
150 | A26C G30A U38G | 0.03
151 | A26G A41C C45A | 0.07
152 | C23U A24G U32A G33C G36U | 0
153 | A24C G27C G40U | 0.01
154 | C23U C37A C42G C45A | 0.01
155 | C23U U34A C37G | 0.01
156 | A25G G35U C46G | 0.2
157 | A25G G33C U34C C46U | 0.03
158 | A25G G36A C46A | 0.05
159 | C23A G27U C46G | 0.78
160 | A25U A39U C46A | 0.31
161 | A26U U28A G33U C46U | 0.02
162 | A24U G33A G36U C37G C42A | 0.07
163 | A24G G30C G44U C45A C46A | 0.05
164 | C23A G30U U38A | 0.64
165 | A25C C37G A41U C42U | 0.02
166 | A24G G27U U28C | 0.5
167 | C23U G35U C37G | 0.12

Source: the RNAGym collection of RNA variant scans (doi:10.7554/elife.90254)
